Hit rate of the full screen: of about 39,000 compounds, about 220 (0.56%) showed activity. This is one part of the list.
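Also: static incubation at 37 °C against the wild-type strain, values averaged over two biological replicates.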

The test deals with Escherichia coli K-12 BW25113. In words: relative growth (OD600 normalised to plate interquartile mean) (fraction); higher = less growth inhibition, active = 0.2 or less. The note with it: 50 µM; LB; incubation time: overnight (16-24 h).
`C[C@H](CO)N1C[C@H](C)[C@@H](CN(C)Cc2ccc(C(=O)Nc3ccccc3N)cc2)Oc2ccc(NC(=O)Nc3ccc(F)cc3)cc2C1=O`: the relative growth was inactive: 0.994.

For the molecule `COc1ccc(S(=O)(=O)Nc2cccc3c2O[C@@H](CN(C)Cc2ccc(-c4ccccc4)cc2)[C@H](C)CN([C@H](C)CO)C3=O)cc1`, the relative growth was inactive: 1.02.

With `C[C@H](CO)N1C[C@H](C)[C@H](CN(C)Cc2ccncc2)OCCCC[C@H](C)Oc2ccc(NS(=O)(=O)c3ccc(Cl)cc3)cc2C1=O`, the relative growth was inactive: 0.995.

Take `O=C(C[C@H]1CC[C@@H]2[C@H](COC[C@@H](O)CN2S(=O)(=O)c2ccccc2)O1)NCc1ccc(-c2ccccc2)cc1`: the relative growth is inactive: 0.953.

Take `C[C@@H]1CN([C@H](C)CO)S(=O)(=O)c2ccc(-c3cncnc3)cc2O[C@@H]1CN(C)C(=O)c1ccc2c(c1)OCO2`: the relative growth is inactive: 1.01.

For the molecule `Cc1cc(C(=O)Nc2cccc3c2O[C@@H](CN(C)Cc2ccc(C(=O)O)cc2)[C@H](C)CN([C@H](C)CO)C3=O)n(C)n1`, the relative growth was inactive: 1.06.

Turning to `C[C@@H]1CCCCO[C@H](CN(C)S(=O)(=O)c2ccc(F)cc2)[C@@H](C)CN([C@H](C)CO)C(=O)c2cc(NC(=O)Nc3ccc(C(F)(F)F)cc3)ccc2O1`, the relative growth was inactive: 1.02.

With `C[C@@H]1CN([C@@H](C)CO)C(=O)c2c(c3ccccc3n2C)-c2ccccc2CO[C@H]1CN(C)Cc1ccccc1C(F)(F)F`, the relative growth was inactive: 1.06.

On to `CC(=O)OCCNC(=O)c1cccnc1`, for which the relative growth is inactive: 0.979.

Regarding `CO[C@@H]1CN(C)C(=O)c2ccc(NC(=O)Nc3cccc(F)c3)cc2OC[C@@H](C)N(C(=O)Nc2c(C)noc2C)C[C@H]1C`, the relative growth is inactive: 0.957.

With `O=C(O)C=C(CC(=O)O)C(=O)O`, the relative growth is inactive: 1.06.

Turning to `C=CCCCCCCCCC=O`, the relative growth was inactive: 0.93.

As to `CCC(Cc1c(I)cc(I)c(N)c1I)C(=O)O` (centres undefined), the relative growth was inactive: 0.832.

On to `C[C@@H]1CCCCO[C@@H](CN(C)Cc2ccccc2)[C@@H](C)CN([C@H](C)CO)C(=O)c2cc(NC(=O)C3CCCCC3)ccc2O1`, for which the relative growth was inactive: 0.989.

For the molecule `C[C@H](CO)N1C[C@H](C)[C@H](CN(C)S(=O)(=O)c2cn(C)cn2)Oc2ccc(NC(=O)CCC(F)(F)F)cc2CC1=O`, the relative growth is inactive: 1.

On to `COc1ccc(CN(C)C[C@H]2OCCCC[C@H](C)Oc3ccc(NS(=O)(=O)c4ccc(F)cc4)cc3C(=O)N([C@@H](C)CO)C[C@H]2C)cc1`, for which the relative growth was inactive: 0.99.

As for `Cc1nc(CO)co1`, the relative growth was inactive: 0.963.

Regarding `C[C@@H]1CN([C@H](C)CO)C(=O)c2cc(NS(=O)(=O)c3ccccc3)ccc2O[C@@H]1CN(C)Cc1ccncc1`, the relative growth was inactive: 0.983.

As to `C[C@@H]1CN([C@H](C)CO)C(=O)c2cc(NS(=O)(=O)c3cn(C)cn3)ccc2O[C@@H]1CN(C)S(=O)(=O)c1cn(C)cn1`, the relative growth was inactive: 1.02.

With `CC(C)(C)Nc1nc(=O)[nH]c(=O)[nH]1`, the relative growth was inactive: 1.01.

As for `Cc1cccc2[nH]c(CN)nc12`, the relative growth is inactive: 1.01.

Consider `C[C@H](CO)N1C[C@H](C)[C@H](CN(C)S(=O)(=O)c2cn(C)cn2)Oc2ccc(NC(=O)Cc3cn(C)c4ccccc34)cc2C1=O`, for which the relative growth is inactive: 0.991.

With `C[C@@H]1CN([C@@H](C)CO)C(=O)c2cc(C#CCN(C)C)cnc2O[C@@H]1CN(C)S(C)(=O)=O`, the relative growth was inactive: 0.981.

Consider `C[C@H](CO)N1C[C@H](C)[C@H](CN(C)Cc2ccc(C(=O)Nc3ccccc3N)cc2)OCc2cn(nn2)CCCC1=O`, for which the relative growth was inactive: 1.01.

For `O=C(NCCN1CCOCC1)[C@@H]1c2ccccc2C(=O)N(Cc2cc(C(F)(F)F)cc(C(F)(F)F)c2)[C@H]1c1ccc(CO)cc1`, the relative growth is inactive: 0.993.

As to `Cc1noc(C)c1S(=O)(=O)Nc1ccc2c(c1)C(=O)N([C@H](C)CO)C[C@H](C)[C@@H](CN(C)Cc1ccccc1)OCCCC[C@H](C)O2`, the relative growth is inactive: 1.

Regarding `COc1ccc(CN(C)C[C@@H]2Oc3ccc(NC(=O)CCCN(C)C)cc3C(=O)N([C@H](C)CO)C[C@H]2C)cc1`, the relative growth is inactive: 0.999.

As to `C[C@@H]1CCCCO[C@H](CN(C)Cc2ccccc2)[C@@H](C)CN([C@H](C)CO)C(=O)c2cc(NC(=O)c3ccncc3)ccc2O1`, the relative growth is inactive: 0.999.

Consider `C[C@H]1CCCCO[C@@H](CN(C)C(=O)CCC(F)(F)F)[C@@H](C)CN([C@@H](C)CO)C(=O)c2cc(NC(=O)NC3CCCCC3)ccc2O1`, for which the relative growth was inactive: 1.02.

With `Cc1ccc(S(=O)(=O)Nc2ccc3c(c2)C(=O)N([C@@H](C)CO)C[C@H](C)[C@@H](CN(C)C(=O)Nc2cccc4ccccc24)O3)cc1`, the relative growth was inactive: 0.998.

With `COc1ccc(CN(C)C[C@H]2OCCCC[C@@H](C)Oc3ccc(NC(=O)Nc4cccc5ccccc45)cc3C(=O)N([C@H](C)CO)C[C@H]2C)cc1`, the relative growth is inactive: 1.03.

For `C[C@@H]1CN([C@@H](C)CO)C(=O)c2cc(NC(=O)CCN3CCOCC3)ccc2O[C@H]1CN(C)Cc1ccc(C(=O)O)cc1`, the relative growth is inactive: 1.02.

As to `C[C@@H]1CCCCO[C@@H](CN(C)C(=O)Nc2ccc3c(c2)OCO3)[C@H](C)CN([C@@H](C)CO)C(=O)c2cc(NC(=O)Nc3ccc4c(c3)OCO4)ccc2O1`, the relative growth is inactive: 1.03.

On to `C[C@H](CO)N1C[C@H](C)[C@@H](CN(C)C(=O)NC2CCCCC2)OCCCC[C@H](C)Oc2ccc(NC(=O)Nc3ccc4c(c3)OCO4)cc2C1=O`, for which the relative growth is inactive: 0.988.

`COc1ccc(NC(=O)N(C)C[C@H]2OCCCC[C@H](C)Oc3ccc(NC(=O)NC(C)C)cc3C(=O)N([C@H](C)CO)C[C@@H]2C)cc1`: the relative growth was inactive: 1.01.

Regarding `C[C@@H]1CN([C@H](C)CO)C(=O)Cc2cc(NS(=O)(=O)c3ccccc3)ccc2O[C@@H]1CN(C)Cc1ccncc1`, the relative growth is inactive: 0.986.

For the molecule `O=C(CN1CCOCC1)NCC[C@H]1CC[C@@H](NS(=O)(=O)c2ccc(F)cc2)[C@H](CO)O1`, the relative growth is inactive: 0.986.

Regarding `C[C@@H]1CN([C@@H](C)CO)C(=O)c2cccc(NC(=O)c3ccc(-c4nccs4)cc3)c2O[C@@H]1CN(C)Cc1ccc(C(=O)Nc2ccccc2N)cc1`, the relative growth was inactive: 0.979.

With `CCOc1ccc(-n2c([C@@H](C)N(Cc3cccnc3)C(=O)Cc3ccc(F)c(C(F)(F)F)c3)nc3ncccc3c2=O)cc1`, the relative growth is inactive: 0.789.

Regarding `O=C(C[C@H]1C[C@@H]2c3cc(NS(=O)(=O)c4ccc(F)cc4)ccc3O[C@@H]2[C@@H](CO)O1)NC1CCCCC1`, the relative growth is inactive: 1.02.

For `Cc1ccc(S(=O)(=O)Nc2ccc3c(c2)C(=O)N([C@@H](C)CO)C[C@@H](C)[C@H](CN(C)Cc2ccc4c(c2)OCO4)OCCCC[C@@H](C)O3)cc1`, the relative growth is inactive: 0.996.

For `O=C(C[C@@H]1CC[C@@H]2NC[C@@H](O)COC[C@H]2O1)NCCN1CCCC1`, the relative growth is inactive: 0.998.

On to `C[C@H](CO)N1C[C@H](C)[C@H](CN(C)C(=O)c2ccc3c(c2)OCO3)Oc2cc(-c3ccncc3)ccc2S1(=O)=O`, for which the relative growth is inactive: 0.99.

`CC(=O)N(C)C[C@@H]1Oc2ncc(C#C[C@H](C)O)cc2C(=O)N([C@H](C)CO)C[C@H]1C`: the relative growth is inactive: 1.04.

As for `C[C@@H]1CN([C@@H](C)CO)C(=O)CCCn2cc(nn2)CO[C@H]1CN(C)C(=O)Nc1ccc(N2CCN(C)CC2)cc1`, the relative growth was inactive: 1.01.

With `CNC[C@@H]1Oc2ccc(NS(=O)(=O)c3cn(C)cn3)cc2C(=O)N([C@@H](C)CO)C[C@@H]1C`, the relative growth was inactive: 0.83.

As for `CCS(=O)(=O)N1C[C@]2(CN(C2)C(=O)c2ccc3c(c2)OCO3)c2c(n(c3cc(ccc23)OC)C)[C@@H]1CO`, the relative growth is inactive: 0.988.

As for `COc1ccc2c3c([nH]c2c1)[C@H](CO)N(C[C@]13CCN(CC1)Cc1cc(on1)-c1ccccc1)C(=O)Nc1ccc(cc1)F`, the relative growth was inactive: 1.01.

On to `COc1ccc(-c2oc3cc(O[C@@H]4O[C@@H](C)[C@H](O)[C@@H](O)[C@H]4O)cc(O)c3c(=O)c2O[C@@H]2O[C@H](CO)[C@@H](O)[C@H](O)[C@H]2O)cc1`, for which the relative growth was inactive: 0.95.

`C[C@@H]1CCCCO[C@H](CN(C)C(=O)c2ccncc2)[C@@H](C)CN([C@@H](C)CO)C(=O)c2cc(NS(C)(=O)=O)ccc2O1`: the relative growth was inactive: 0.98.

For `C[C@H](CO)N1C[C@H](C)[C@@H](CN(C)Cc2ccc(Oc3ccccc3)cc2)Oc2ccc(NC(=O)c3ccncc3)cc2CC1=O`, the relative growth is inactive: 0.971.

In the case of `C[C@@H]1CN([C@@H](C)CO)C(=O)c2cc(NC(=O)Nc3ccc4c(c3)OCO4)ccc2O[C@@H](C)CCCCO[C@@H]1CN(C)Cc1ccccc1`, the relative growth was inactive: 1.

As to `COc1ccc(NC(=O)Nc2ccc3c(c2)C(=O)N([C@H](C)CO)C[C@@H](C)[C@H](CN(C)C(=O)Nc2ccccc2)OCCCC[C@@H](C)O3)cc1`, the relative growth was inactive: 1.03.

For the molecule `CO[C@H]1CN(C)C(=O)c2ccc(NC(=O)C3CC3)cc2OC[C@H](C)N(C(=O)Cc2ccccn2)C[C@@H]1C`, the relative growth was inactive: 1.01.

As for `Cc1cc(C(=O)Nc2cccc3c2O[C@@H](CN(C)C(=O)Nc2c(C)noc2C)[C@@H](C)CN([C@H](C)CO)C3=O)n(C)n1`, the relative growth was inactive: 1.01.

Turning to `O=C(C[C@H]1CC[C@@H]2[C@H](COC[C@H](O)CN2S(=O)(=O)c2ccccc2)O1)N1CCc2ccccc2C1`, the relative growth is inactive: 1.01.

Take `Cc1ccc(S(=O)(=O)N(C)C[C@H]2Oc3c(NC(=O)C4CC4)cccc3C(=O)N([C@H](C)CO)C[C@@H]2C)cc1`: the relative growth is inactive: 0.983.

For the molecule `C[C@@H]1CCCCO[C@@H](CN(C)C(=O)Cc2ccccc2)[C@@H](C)CN([C@H](C)CO)C(=O)c2cc(NC(=O)CCC(F)(F)F)ccc2O1`, the relative growth is inactive: 0.986.

`C[C@@H]1CN([C@H](C)CO)S(=O)(=O)c2ccc(-c3cncnc3)cc2O[C@@H]1CN(C)C(=O)Cc1ccccc1`: the relative growth is inactive: 1.03.

The values are drawn from the supplement of paper PMC9446081.
